# Measurements published in the supplement of paper PMC11417369.
# ± gives the standard deviation of the averaged measurements. This is one part of the list.
# System: PfAP2-G AP2 domain (GST-tagged)
# Experiment: gcPBM binding intensity (ln(normalized median fluorescence intensity)); higher = stronger DNA binding
# In short: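 GST-fused DNA-binding domains of P. falciparum, expressed in E. coli, were applied at about 25 μg on average for 1 h to an Agilent 4 × 180k array of primer-extended double-stranded 36-bp intergenic genomic probes and negative controls. Binding intensity is the highest Masliner-normalised natural-log median intensity across replicate spots of either probe orientation, measured with Alexa488 anti-GST antibody and a 488 nm scan.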
row,Sequence,gcPBM binding intensity (ln)
1,ATAAAGAAATTACACACATGCAATGAAAAAAAAAAA [TGCATGCA_site406],9.8 ± 0.071
2,ACATATATATATATATATATATATATATATAGATAG [CACACA_negctrl_site783],10.2 ± 0.57
3,TACTAAGAAGTATTTACACACCAACAAGGCGAAAAA [CACACA_site2944],10.3 ± 0.29
4,ATAAATAATATGTAAACACACAAAAAATAAAAATGA [CACACA_site1178],10.06 ± 0.071
5,ATGTTTGAGCCTAAGGTGCATATAAAAATATATGTG [GTGCAC_site9690],10.4 ± 0.38
6,ATATGTATAAAAATCCGTACATAAGTGTGCGTATAT [XGTACX_site4376],11.2 ± 0.88
7,TTGAGCCTACAAAAGGGTACACATTCAATTTATTTT [XGTACX_site6570],11.3 ± 0.76
8,AAAAAAAAAAGAAATTGTACTTTTTGTTTAATAATT [XGTACX_site4681],11.1 ± 0.64
9,ATATTTTGTTATGAAACACACACATATATATATATA [CACACA_site9216],10.3 ± 0.4
10,ATTATATACAAATAAAGTACATAAACAAATTCAGAA [XGTACX_site1187],11.4 ± 0.84
11,TATTTCAAACTGTTCTCACACACGAAATTAGAAATG [CACACA_site611],10.2 ± 0.24
12,TTTTGAATATGGATCTTATATATATTAAATAAATAA [CACACA_negctrl_site344],9.79 ± 0.12
13,ATTCCAGAAATATATTAACAAGGAAAATATAAAAAT [CACACA_negctrl_site343],9.89 ± 0.042
14,AAGAAGAATAGGCGTTGTACGGAATGTAGTAGAGTT [XGTACX_site2430],10.9 ± 0.55
15,ATAAGGTTACAACAAACACACAAAGGAATATACGCA [CACACA_site4090],10.18 ± 0.099
16,TTGTATTCATATGGTTGTACATATTAAAAGTTCTAA [XGTACX_site7255],11.1 ± 0.67
17,TTAATATAAATATGATTTTTGATTCCTATACTATTT [CACACA_negctrl_site752],9.765 ± 0.078
18,ATATATATAACAAAAGTGCATTAAGGGGATGCTATA,10.1 ± 0.2
19,TTATTATAAATAGGTAGTACATTTTGAACAAATATT [XGTACX_site8866],11.5 ± 0.95

row,Sequence,gcPBM binding intensity (ln)
1,AATATAAATATAGGAAATGTAGTTAAAAGGTGTATG [CACACA_negctrl_site1233],10.13 ± 0.035
2,TTTATTTTTAAAGGCACACACATTTTTATTTTTAAA [CACACA_site2021],10.1 ± 0.19
3,TTCTTTTTTTTCAGTTGTACTTATAAGAAAGAAAAA [XGTACX_site4028],11.5 ± 1
4,TTTATTTATAGAATTACACACATATATACACAAATG [CACACA_site7338],10.3 ± 0.26
5,ATTCTATAGAAACACACACACATGCATGCACCTATA [CACACA_site107],10.2 ± 0.26
6,TTATATATATATGTATGTACTTATAACTTTTATTAG [XGTACX_site3190],11.2 ± 0.83
7,ATACGACAAATATAAAGTACAAGCTTGGTTTTTATA [XGTACX_site8103],11.2 ± 0.88
8,TATGCAAGGAACCACACACACACACGGAAATGTATA [CACACA_site6490],10.3 ± 0.3
9,AATTATGGGGAAAAGACACACATATATATATATATA [CACACA_site2589],10.2 ± 0.54
10,ATATATATATATAACACACGCAAAAAAATTAAATAA [CACACA_site1400],10.4 ± 0.57
11,TATGGGTATGTATTCACACATAACAAAAATATCAAA [CACACA_site5059],10.2 ± 0.22
12,TTTTATATATTCAATTGTACATGTATTTTTTTTTTT [XGTACX_site3584],11 ± 0.63
13,ATAAATTTACTTGATTGTACATTTCTTAGTTGTATT [XGTACX_site3057],10.8 ± 0.48
14,TTATATGTCAATTTGCGTACATACATAATTACATAT [XGTACX_site1546],11.5 ± 1.1
15,AATTTTAATTTTTTGACACACATATAATATATATAT [CACACA_site3978],10.2 ± 0.28
16,TATACTGATAAAAAAAGTACTAGAGTTTGTAAAAAT [XGTACX_site3934],11.2 ± 0.76
17,CACAAGAAAGTTCACACACACACATATATATATATA [CACACA_site6009],10.2 ± 0.33
18,TTAATATTTTTAATTTGTACATATAATTAAATCTCT [XGTACX_site1736],10.9 ± 0.51
19,GAAAATTATGTATATTGTACAAATATTATATTAAAT [XGTACX_site2467],10.7 ± 0.25

row,Sequence,gcPBM binding intensity (ln)
1,TATAAAATTTAAATTATACACACTTAAGTAACATCA [CACACA_site531],10.3 ± 0.25
2,CAAGGACAATTTACAAACATAATATATGTATATATA [TGCATGCA_negctrl_site5],9.995 ± 0.064
3,TTGAATACATATATATGTACATATTCTATGGTTAGA [XGTACX_site4088],11.2 ± 0.79
4,ATCAAACAAAAAATAAAAAAATGCGACATGTGTACA [TGCATGCA_negctrl_site164],11 ± 0.47
5,CTGAGGAAGCTAATTACACACATGCATATTTTTTTT [CACACA_site2177],9.87 ± 0.11
6,ATTATCTTCAAGTATGTACACACTATATATAATAAA [CACACA_site2441],11.3 ± 0.76
7,ATGTAAAAATAAAGATGTACATGTATATATATATAT [XGTACX_site5193],11.2 ± 0.71
8,TTTTTTTTACATGAACGTACATAATATATTTTATAA [XGTACX_site5249],11.1 ± 0.72
9,TGGTGTTTTTTTTAATGTACTTATAAAATAATACAT [XGTACX_site6574],11.4 ± 0.83
10,AATTCCTTATACAATTGTACATAAAAAGAATAAAAA [XGTACX_site1343],11 ± 0.66
11,TTAAAAAAGAATTGTGCACACACAAAAAATGTTCAT [CACACA_site1102],10.4 ± 0.24
12,AATATATATTCATGTGTACACACAAAAAAAAATAAA [CACACA_site8690],11.6 ± 0.84
13,AAAAAAAAAAAAATTACACACATACAGATAATAATA [CACACA_site5244],9.845 ± 0.064
14,CTATTATAAAAATGATGTACACTTATATATACATAT [XGTACX_site6087],11.4 ± 0.64
15,TTTTTTTTTTGAATATGTACTTAAAAAAATTTTTTT [XGTACX_site3851],11.3 ± 0.86
16,TTTTCATTCCACAACGCACACCCATTTAAAAAAAAA [CACACA_site1377],10.5 ± 0.45
17,TAATTTTTTTTTTTTTTTTTTTTTTTTTTTTTTTTA [CACACA_negctrl_site1218],9.59 ± 0.014
18,AAAAAGAAGATGCAAACATGCACACAGAAAAAAAAA [TGCATGCA_site375],10.1 ± 0.13
